Experimental data as given in the supplement of paper PMC9588766.
Where a name gives a salt, the structure may show the parent alone. ± gives the standard deviation of the averaged measurements. The full ranking holds about 2,000 compounds; the median of “cell viability relative to DMSO control (compound alone)” is about 0.98, and the lowest 2% start at about 0.23. The list shows a part of the results.

system: PDC-DUC18828; test: cell viability relative to DMSO control (compound alone) (fraction); PDC-DUC18828 is a patient-derived cholangiocarcinoma cell line; higher = less growth inhibition; conditions: 1 µM; 72 h
Experimental: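 Selleck Bioactive library screen in the patient-derived FGFR2-G3BP2 fusion-positive ICC cell line PDC-DUC18828 (500 cells/well). Each compound was tested at 1 uM alone, in triplicate, for 72 h. Viability was read by CellTiter-Glo and normalised to plate DMSO controls.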

Structure (SMILES)	cell viability
CC1(C)[C@@H](O)CC[C@]2(C)[C@H]3C(=O)C=C4[C@@H]5C[C@@](C)(C(=O)O)CC[C@]5(C)CC[C@@]4(C)[C@]3(C)CC[C@@H]12 [Enoxolone]	0.992 ± 0.053
CC1(C)CC(=O)c2c(C(F)(F)F)nn(-c3ccc(C(N)=O)c(N[C@H]4CC[C@H](OC(=O)CN)CC4)c3)c2C1	0.336 ± 0.018
Oc1ccc(Cc2nc3c(Cc4ccccc4)nc(-c4ccc(O)cc4)cn3c2O)cc1 [Coelenterazine]	0.961 ± 0.034
C[C@H]1COC2(CCN(c3nc(=O)c4cc(C(F)(F)F)cc([N+](=O)[O-])c4s3)CC2)O1 (racemic) [BTZ043 Racemate]	0.941 ± 0.051
Cc1ccc(C)c(OCCCC(C)(C)C(=O)O)c1 [Gemfibrozil]	1.06 ± 0.023
O=C(O)C[C@H](O)C[C@H](O)/C=C/c1c(C2CC2)nc2ccccc2c1-c1ccc(F)cc1 [Pitavastatin Calcium]	0.869 ± 0.081
O=C(CCCN1CCC(O)(c2ccc(Cl)cc2)CC1)c1ccc(F)cc1 [Haloperidol]	1.02 ± 0.072
COc1cc2c(cc1OC)[C@@H]1Cc3ccc(OC)c(OC)c3CN1CC2 [Rotundine]	0.955 ± 0.041
C[C@H](NC(=O)CCc1nc2ccccc2c(=O)[nH]1)c1ccccc1	1.06 ± 0.025
NCC(=O)CCC(=O)O [5-Aminolevulinic acid HCl]	0.962 ± 0.054
CN1CCC(CNc2ccc3ncc(-c4cccc(OC(F)(F)F)c4)n3n2)CC1 [SGI-1776 free base]	0.894 ± 0.056
Cc1ccc(Sc2ccccc2N2CCNCC2)c(C)c1	1.04 ± 0.021
Cc1nn(C)c(COc2ccc(N3CCN(S(=O)(=O)N(C)C)CC3)cc2)c1-c1cccc2c(CCCOc3cccc4ccccc34)c(C(=O)O)n(CCN3CCOCC3)c12	0.997 ± 0.033
CCCC(=O)Nc1ccc(OCC(O)CNC(C)C)c(C(C)=O)c1 (stereo not drawn) [Acebutolol HCl]	0.989 ± 0.036
C[C@@H]1O[C@@H](OC[C@H]2O[C@@H](Oc3c(-c4ccc(O)c(O)c4)oc4cc(O)cc(O)c4c3=O)[C@H](O)[C@@H](O)[C@@H]2O)[C@H](O)[C@H](O)[C@H]1O [Rutin]	1.05 ± 0.028
CN1[C@@H]2CC[C@H]1C[C@@H](OC(c1ccccc1)c1ccccc1)C2 [Benztropine mesylate]	0.98 ± 0.027
C[C@H](CCC(=O)O)[C@H]1CC[C@H]2[C@@H]3C[C@H](O)[C@@H]4C[C@H](O)CC[C@]4(C)[C@H]3CC[C@]12C [Hyodeoxycholic acid (HDCA)]	0.966 ± 0.038
N=C(N)c1ccc(N=NNc2ccc(C(=N)N)cc2)cc1 [Diminazene Aceturate]	0.98 ± 0.025
NC(=O)Nc1sc(-c2ccc(F)cc2)cc1C(N)=O	0.872 ± 0.027
CC(C)(C)OC(=O)N[C@H]1CCCCC/C=C\[C@@H]2C[C@@]2(C(=O)NS(=O)(=O)C2CC2)NC(=O)[C@@H]2C[C@@H](OC(=O)N3Cc4cccc(F)c4C3)CN2C1=O [Danoprevir (ITMN-191)]	1.08 ± 0.024
N[C@@H](CC(=O)N1CCn2c(nnc2C(F)(F)F)C1)Cc1cc(F)c(F)cc1F [Sitagliptin phosphate monohydrate]	0.875 ± 0.013
C[C@@H]1O[C@@H](O[C@H]2[C@H](Oc3cc(O)c4c(c3)O[C@H](c3ccc(O)cc3)CC4=O)O[C@H](CO)[C@@H](O)[C@@H]2O)[C@H](O)[C@H](O)[C@H]1O [Naringin]	1 ± 0.032
COc1nc(C)cnc1NS(=O)(=O)c1cccnc1-c1ccc(-c2nnco2)cc1 [Zibotentan (ZD4054)]	1.1 ± 0.04
C/C(O)=C(\C#N)C(=O)Nc1ccc(C(F)(F)F)cc1 [Teriflunomide]	0.945 ± 0.025
Nc1nccc2c1ncn2C1C=C(CO)C(O)C1O (stereo not drawn) [3-Deazaneplanocin A (DZNeP)]	0.7227 ± 0.004

Structure (SMILES)	cell viability
Cc1nc(N(C)C(=O)Cc2ccc(-c3ccccn3)cc2)sc1S(N)(=O)=O [Pritelivir (BAY 57-1293)]	0.9 ± 0.088
Cn1cc(/C=C/C(=O)c2cccc(F)c2)cc1/C=C/C(=O)NO	1.09 ± 0.018
C[C@@H](Oc1cc(-c2cnn(C3CCNCC3)c2)cnc1N)c1c(Cl)ccc(F)c1Cl	0.835 ± 0.016
Cc1cc(Nc2ncc(Cl)c(Nc3ccccc3S(=O)(=O)C(C)C)n2)c(OC(C)C)cc1C1CCNCC1	0.912 ± 0.042
O=C(O)Cc1cc(I)c(Oc2ccc(O)c(I)c2)c(I)c1 [Tiratricol]	1.09 ± 0.011
CCC(CC)(NC(=O)C(C)C)C(=O)N[C@@H](CCCN=C(N)N)C(=O)NC1(C(=O)NC(c2ccc(F)cc2)c2ccc(F)cc2)CCCC1	1.07 ± 0.049
CNCC[C@@H](Oc1ccccc1C)c1ccccc1 [Atomoxetine HCl]	1.05 ± 0.05
Cc1ccc(C(=O)C(C)CN2CCCCC2)cc1 (stereo not drawn) [Tolperisone HCl]	0.937 ± 0.073
COc1cc2ncnc(Nc3ccc(F)c(Cl)c3)c2cc1NC(=O)/C=C/CN1CCCCC1	0.86 ± 0.057
CCCCC1C(=O)N(c2ccccc2)N(c2ccccc2)C1=O [Phenylbutazone]	1.06 ± 0.051
Nc1ncnc2c1nc(Br)n2[C@@H]1O[C@@H]2COP(=O)(O)O[C@H]2[C@H]1O [8-Bromo-cAMP]	0.959 ± 0.03
CCCc1nc2c(C)cc(-c3nc4ccccc4n3C)cc2n1Cc1ccc(-c2ccccc2C(=O)O)cc1 [Telmisartan]	1.08 ± 0.05
COCCCOc1cc(C[C@@H](C[C@H](N)[C@@H](O)C[C@H](C(=O)NCC(C)(C)C(N)=O)C(C)C)C(C)C)ccc1OC [Aliskiren Hemifumarate]	0.958 ± 0.024
Cc1ccc(C(=O)N(CCCN)[C@@H](c2nc3cc(Cl)ccc3c(=O)n2Cc2ccccc2)C(C)C)cc1	0.353 ± 0.023
CC1=CC(=O)c2ccccc2C1=O [Menadione]	0.996 ± 0.027
CC(=O)/N=c1/sc(S(N)(=O)=O)nn1C [Methazolamide]	1.06 ± 0.018
CC(=O)NC[C@H]1CN(c2ccc(N3CCOCC3)c(F)c2)C(=O)O1 [Linezolid]	1.08 ± 0.068
Cc1nccn1CC1CCc2c(c3ccccc3n2C)C1=O (stereo not drawn) [Ondansetron HCl]	1.02 ± 0.054
COc1ccc2c(c1)c(CC(=O)OCC(=O)O)c(C)n2C(=O)c1ccc(Cl)cc1 [Acemetacin]	1.03 ± 0.046
COc1ccc2cc3[n+](cc2c1OC)CCc1cc2c(cc1-3)OCO2 [Berberine HCl]	0.89 ± 0.015
COc1cc2c(cc1Cc1cccc(Cl)c1F)c(=O)c(C(=O)O)cn2[C@H](CO)C(C)C [Elvitegravir (GS-9137, JTK-303)]	1.07 ± 0.04
Cn1sc(=O)n(Cc2ccccc2)c1=O	0.888 ± 0.02
COc1cc(-c2cc(-c3ccc(N4CCNCC4)cc3)cnc2C)cc(OC)c1OC	0.946 ± 0.048
Nc1ccccc1NC(=O)c1ccc(CNc2nccc(-c3cccnc3)n2)cc1 [Mocetinostat (MGCD0103)]	0.745 ± 0.016
Cc1ccc(S(=O)(=O)/C=C/C#N)cc1	0.754 ± 0.039

Structure (SMILES)	cell viability
CC(C)(C)OC(=O)Nc1ccc(-c2cc(C(=O)NCCCCCCC(=O)NO)no2)cc1	0.566 ± 0.022
CC1=C(C(=O)O)N2C(=O)[C@@H](NC(=O)[C@H](N)c3ccccc3)[C@H]2SC1 [Cephalexin]	1.04 ± 0.028
CC[C@H](C)C(=O)O[C@H]1C[C@H](O)C=C2C=C[C@H](C)[C@H](CC[C@@H](O)C[C@@H](O)CC(=O)O)[C@H]21 [Pravastatin sodium]	0.956 ± 0.022
CO[C@H]1C[C@@H]2CC[C@@H](C)[C@@](O)(O2)C(=O)C(=O)N2CCCC[C@H]2C(=O)O[C@H]([C@H](C)C[C@@H]2CC[C@H](n3cnnn3)[C@H](OC)C2)CC(=O)[C@H](C)/C=C(\C)[C@@H](O)[C@@H](OC)C(=O)[C@H](C)C[C@H](C)/C=C/C=C/C=C/1C [Zotarolimus(ABT-578)]	0.5763 ± 0.0053
CCCC(=O)Nc1cccc(NC(=O)c2ccccc2Br)c1	1.017 ± 0.01
COc1cc(-c2cc(-c3cccc(O)c3)cnc2N)cc(OC)c1OC	0.954 ± 0.035
O=C(O)c1ccc(O)c2ncccc12	1.08 ± 0.029
COc1cc2ncnc(Nc3ccc(O)c(Br)c3)c2cc1OC	0.916 ± 0.058
Nc1nnc(-c2cccc(Cl)c2Cl)c(N)n1 [Lamotrigine]	0.9112 ± 0.0083
Cc1cc(Nc2cc(CN3CCOCC3)c3nc(C)c(Cc4ccc(Cl)cc4F)n3n2)n[nH]1	0.383 ± 0.0096
CCOC(=O)N[C@@H]1CC[C@@H]2[C@@H](C1)C[C@H]1C(=O)O[C@H](C)[C@H]1[C@H]2/C=C/c1ccc(-c2cccc(F)c2)cn1 [Vorapaxar]	1.03 ± 0.022
CC[C@@]1(O)C(=O)OCc2c1cc1n(c2=O)Cc2cc3c(CN(C)C)c(O)ccc3nc2-1 [Topotecan HCl]	0.0869 ± 0.0071
O=C(NC1CC1)c1cc(-c2cccs2)on1 [Isoxazole 9 (ISX-9)]	0.991 ± 0.015
Oc1cc(O)cc(/C=C/c2ccc(O)c(O)c2)c1 [Piceatannol]	0.896 ± 0.042
Nc1nc(=O)[nH]cc1F [Flucytosine]	0.911 ± 0.027
CN1CCN(c2ccc(Nc3cc(-c4cccc(-n5ccc6cc(C7CC7)cc(F)c6c5=O)c4CO)cn(C)c3=O)nc2)CC1	0.981 ± 0.046
CN(C)C(=O)c1cc2cnc(Nc3ccc(N4CCNCC4)cn3)nc2n1C1CCCC1	1 ± 0.041
C=C1[C@H](CO)[C@@H](O)C[C@@H]1n1cnc2c(=O)[nH]c(N)nc21 [Entecavir Hydrate]	0.947 ± 0.078
CC(=O)O[C@]1(C(C)=O)CC[C@H]2[C@@H]3C=C(C)C4=CC(=O)CC[C@]4(C)[C@H]3CC[C@@]21C [Megestrol Acetate]	0.913 ± 0.055
CN1CCC[C@@H]1Cc1c[nH]c2ccc(CCS(=O)(=O)c3ccccc3)cc12 [Eletriptan HBr]	0.962 ± 0.045
COc1ccccc1Oc1c(NS(=O)(=O)c2ccc(C(C)(C)C)cc2)nc(-c2ncccn2)nc1OCCO [Bosentan Hydrate]	0.99 ± 0.059
COc1ccccc1Oc1c(NS(=O)(=O)c2ccc(C(C)(C)C)cc2)nc(-c2ncccn2)nc1OCCO [Bosentan]	1.01 ± 0.016
COc1cc2c(Oc3ccc(NC(=O)C4(C(=O)Nc5ccc(F)cc5)CC4)cc3F)ccnc2cc1OCCCN1CCOCC1	0.672 ± 0.032
